{"source": "paper PMC10668032", "note": "The other results are listed elsewhere or left out. At the low end of the ranking the order means little.", "data": [{"target": "SIX1 homeodomain (reference allele) (UniProt Q15475)", "experiment": "universal protein binding microarray", "conditions": "Universal all-10-mer PBM (8x60K, AMADID 030236), 300 nM GST-tagged protein, Alexa Fluor 488 anti-GST; buffer, salt, pH and temperature not stated; high values mean tight binding; most listed sequences are background and not binding sites; double strand, one strand shown", "units": {"binding signal": "E-score"}, "values": [{"sequence": "ACTGGCTC", "binding signal": -0.118}, {"sequence": "AGCTCACT", "binding signal": -0.049}, {"sequence": "CGAACTGA", "binding signal": -0.0458}, {"sequence": "ATATGCGA", "binding signal": 0.276}, {"sequence": "AGGGAGAG", "binding signal": -0.144}, {"sequence": "AACGACCG", "binding signal": -0.149}, {"sequence": "CATTTTTA", "binding signal": -0.183}, {"sequence": "CTAGCTGC", "binding signal": -0.278}, {"sequence": "AATGGAGC", "binding signal": -0.0626}, {"sequence": "ACCTACAA", "binding signal": -0.164}, {"sequence": "AACCTTGC", "binding signal": -0.139}, {"sequence": "CTATTTCA", "binding signal": 0.101}, {"sequence": "GACTGCCC", "binding signal": -0.309}, {"sequence": "AATTTATA", "binding signal": 0.0543}, {"sequence": "AAGACCCG", "binding signal": -0.0797}, {"sequence": "CACGCAGG", "binding signal": 0.0831}, {"sequence": "ACGTGGAA", "binding signal": -0.225}, {"sequence": "CTACGTAG", "binding signal": -0.168}, {"sequence": "TAAGAGCA", "binding signal": 0.141}, {"sequence": "ACGCTCCA", "binding signal": -0.136}, {"sequence": "CGTCGACG", "binding signal": -0.302}, {"sequence": "ACGTTGGA", "binding signal": -0.065}, {"sequence": "AAATGAGG", "binding signal": -0.148}, {"sequence": "CCAACCTC", "binding signal": 0.0084}, {"sequence": "ATGGCGGG", "binding signal": 0.128}, {"sequence": "AGATGTAA", "binding signal": 0.0301}, {"sequence": "CTCATTCA", "binding signal": -0.197}, {"sequence": "ACACGTCG", "binding signal": -0.289}, {"sequence": "AGGGTGAC", "binding signal": -0.119}, {"sequence": "TCACCGAA", "binding signal": 0.0155}, {"sequence": "CGTCAAAC", "binding signal": -0.0201}, {"sequence": "GCTGCTTA", "binding signal": -0.0968}, {"sequence": "CAGCTTGA", "binding signal": 0.00556}, {"sequence": "GATGAGAA", "binding signal": 0.132}, {"sequence": "GAGCCCAA", "binding signal": -0.194}, {"sequence": "ACAGATAA", "binding signal": -0.00551}, {"sequence": "CAAGACGC", "binding signal": -0.0173}, {"sequence": "AATGGCGG", "binding signal": -0.0358}, {"sequence": "GCGGCAGC", "binding signal": -0.175}, {"sequence": "GCTTGCGA", "binding signal": -0.068}, {"sequence": "AGAATGTA", "binding signal": -0.16}, {"sequence": "CTCCTCAG", "binding signal": 0.113}, {"sequence": "ACCTTTGC", "binding signal": -0.118}, {"sequence": "CCGCACTA", "binding signal": 0.0139}, {"sequence": "AGTGATAA", "binding signal": 0.0438}, {"sequence": "AAACGGGT", "binding signal": 0.108}, {"sequence": "CAAACGCA", "binding signal": 0.00808}, {"sequence": "GGATATGA", "binding signal": 0.356}, {"sequence": "GGTGGCAA", "binding signal": -0.219}, {"sequence": "AGTCCGCG", "binding signal": -0.0651}, {"sequence": "GCAGGCGA", "binding signal": -0.121}, {"sequence": "AAACCATT", "binding signal": -0.0781}, {"sequence": "ATGGTCTG", "binding signal": -0.0342}, {"sequence": "GAGAAGGA", "binding signal": 0.124}, {"sequence": "AGGGTTTC", "binding signal": 0.0777}, {"sequence": "CACGTCAC", "binding signal": -0.156}, {"sequence": "CTGGGTAA", "binding signal": 0.061}, {"sequence": "CCACCAGG", "binding signal": -0.135}, {"sequence": "AAGAGTCA", "binding signal": -0.205}, {"sequence": "ATGGACCC", "binding signal": -0.129}, {"sequence": "AGTTGGAA", "binding signal": -0.242}, {"sequence": "ATAGTTGA", "binding signal": 0.0312}, {"sequence": "TAGCCGAA", "binding signal": 0.0577}, {"sequence": "AGCTGGGG", "binding signal": 0.00877}, {"sequence": "GCCCCGGA", "binding signal": 0.108}, {"sequence": "GTAGAGCA", "binding signal": -0.0809}, {"sequence": "ATAGGCAA", "binding signal": -0.113}, {"sequence": "GCAGGACA", "binding signal": -0.181}, {"sequence": "ATACACGA", "binding signal": 0.234}, {"sequence": "GTGATCTA", "binding signal": 0.298}, {"sequence": "ATATCTCC", "binding signal": 0.424}, {"sequence": "ATAAACTA", "binding signal": 0.0853}, {"sequence": "ATCCGCTA", "binding signal": 0.243}, {"sequence": "TGAACTCA", "binding signal": -0.0652}, {"sequence": "GTACTCAA", "binding signal": 0.0508}, {"sequence": "CGGTCTTC", "binding signal": -0.098}, {"sequence": "GGTGTCAA", "binding signal": 0.454}, {"sequence": "ACAAGGAT", "binding signal": 0.262}, {"sequence": "AACTAAAC", "binding signal": -0.0284}, {"sequence": "ATCTAGAG", "binding signal": 0.15}, {"sequence": "GCACGTAA", "binding signal": -0.277}, {"sequence": "ACTCATAG", "binding signal": -0.0321}, {"sequence": "ATAGGTTA", "binding signal": 0.189}, {"sequence": "ATATTGGC", "binding signal": 0.19}, {"sequence": "GCGATGCA", "binding signal": 0.0435}, {"sequence": "GACTTCTC", "binding signal": -0.253}, {"sequence": "CACCACCA", "binding signal": 0.125}, {"sequence": "ATTCGGTA", "binding signal": 0.211}, {"sequence": "CCCAGCGA", "binding signal": 0.015}, {"sequence": "TTAATGAA", "binding signal": -0.00403}, {"sequence": "GAACCTTA", "binding signal": -0.0998}, {"sequence": "GAGATCGA", "binding signal": 0.271}, {"sequence": "GAAGATCC", "binding signal": 0.297}, {"sequence": "ACCATCTC", "binding signal": 0.0818}, {"sequence": "ATAAGTGG", "binding signal": -0.00345}, {"sequence": "CGTGATAA", "binding signal": 0.0413}, {"sequence": "AGAGCTTC", "binding signal": -0.0935}, {"sequence": "CCGCCCAC", "binding signal": -0.0409}, {"sequence": "CCGCCGGC", "binding signal": 0.0122}, {"sequence": "AAGGCGCC", "binding signal": -0.125}, {"sequence": "CCGTAGAA", "binding signal": -0.17}, {"sequence": "ACTTCAAT", "binding signal": -0.0267}, {"sequence": "ATGCCAAG", "binding signal": 0.0457}, {"sequence": "TCGAACCA", "binding signal": -0.25}, {"sequence": "GGGGATGA", "binding signal": 0.267}, {"sequence": "AACTCATG", "binding signal": -0.116}, {"sequence": "ATCTTTTC", "binding signal": -0.0488}, {"sequence": "CAGAGGTA", "binding signal": 0.054}, {"sequence": "ACGTGCAT", "binding signal": 0.0421}, {"sequence": "TTCAGCAA", "binding signal": -0.138}, {"sequence": "CAAGCTGC", "binding signal": -0.313}, {"sequence": "GGGGCCCA", "binding signal": -0.128}, {"sequence": "CGTGCTTC", "binding signal": -0.0852}, {"sequence": "CCCGGGTC", "binding signal": 0.288}, {"sequence": "AGCGCATA", "binding signal": 0.0805}, {"sequence": "CACGTTAA", "binding signal": -0.197}, {"sequence": "AAAGGGAA", "binding signal": -0.164}, {"sequence": "CCCTGACG", "binding signal": 0.0323}, {"sequence": "GCTGTCCC", "binding signal": -0.0456}, {"sequence": "CCCTCTCC", "binding signal": -0.000905}, {"sequence": "ACAATTCC", "binding signal": -0.132}, {"sequence": "GAACCGCA", "binding signal": -0.215}, {"sequence": "GCGCCCTA", "binding signal": -0.114}, {"sequence": "CGTAGAGA", "binding signal": -0.134}, {"sequence": "AGGGGACC", "binding signal": -0.0917}, {"sequence": "GGAACGTA", "binding signal": -0.014}, {"sequence": "CGGCATCA", "binding signal": 0.0641}, {"sequence": "GTACGAAA", "binding signal": -0.244}, {"sequence": "CAACGCTA", "binding signal": -0.206}, {"sequence": "AGCAGACT", "binding signal": -0.181}, {"sequence": "CCGAATTA", "binding signal": -0.0101}, {"sequence": "AGGACGAG", "binding signal": -0.0876}, {"sequence": "TAAGCTTA", "binding signal": -0.0651}, {"sequence": "CATTAAGA", "binding signal": -0.0476}, {"sequence": "CCATAGGG", "binding signal": 0.162}, {"sequence": "GGTTTGGA", "binding signal": -0.0591}, {"sequence": "ACACGTGA", "binding signal": 0.0346}, {"sequence": "AATGGTAG", "binding signal": -0.144}, {"sequence": "GGAGCCGA", "binding signal": 0.0197}, {"sequence": "AATTTTTC", "binding signal": -0.246}, {"sequence": "CAAACGGG", "binding signal": 0.0338}, {"sequence": "AATATATC", "binding signal": 0.343}, {"sequence": "CCTCGCTA", "binding signal": 0.0787}, {"sequence": "GCGAGGAC", "binding signal": -0.311}, {"sequence": "AACCCCCC", "binding signal": 0.0227}, {"sequence": "AATGATCG", "binding signal": 0.152}, {"sequence": "CCTATAGC", "binding signal": 0.0354}, {"sequence": "CAAAGACA", "binding signal": -0.115}, {"sequence": "CACTTGTA", "binding signal": -0.085}, {"sequence": "GTTGTGTA", "binding signal": 0.0531}, {"sequence": "AAATTCCA", "binding signal": -0.257}, {"sequence": "GCTACAGC", "binding signal": -0.24}, {"sequence": "GAGTCAGA", "binding signal": 0.00829}, {"sequence": "CCAGCACC", "binding signal": -0.174}, {"sequence": "ACGTGCAC", "binding signal": -0.277}, {"sequence": "AATCGGGT", "binding signal": 0.0616}, {"sequence": "CCCAGCAC", "binding signal": -0.0219}, {"sequence": "AGGTATCC", "binding signal": 0.461}, {"sequence": "AGGAGCCG", "binding signal": 0.0792}, {"sequence": "CGGTCTGA", "binding signal": 0.057}, {"sequence": "CTGAAGCA", "binding signal": -0.223}, {"sequence": "CATCAACC", "binding signal": -0.0663}, {"sequence": "ATAAAGCG", "binding signal": -0.0482}, {"sequence": "GAGCTGAC", "binding signal": 0.0148}, {"sequence": "GGCCGCGA", "binding signal": -0.235}, {"sequence": "ATTGTGGC", "binding signal": -0.0908}, {"sequence": "AGATCTGA", "binding signal": 0.248}, {"sequence": "CTGGGACA", "binding signal": -0.00937}, {"sequence": "GAAGATAC", "binding signal": 0.354}, {"sequence": "CTGAACAA", "binding signal": -0.118}, {"sequence": "AATAGGCC", "binding signal": -0.215}, {"sequence": "GGTCGTTA", "binding signal": -0.0446}]}]}
